Laboratory results from paper PMC3714271.
No constants are given. Whether binding was seen depends on the method and setting. For some assays here: Binding seen in cells or lysates may run through a third protein. Some entries that bind do so weakly or less than the wild type. For some assays here: Where a sequence is shown, tags or fusion partners need not be part of it. Each block holds one molecule with its values, some of them ahead of it.

Amino acid sequences for entries named in this document (tags omitted).
UniProt P63167: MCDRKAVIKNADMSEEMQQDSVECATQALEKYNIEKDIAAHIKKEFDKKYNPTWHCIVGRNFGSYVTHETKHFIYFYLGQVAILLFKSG

Key:
[1] = target: T1, FLAG-CDK5RAP2 (706–925) (human) (UniProt Q96SN8); experiment: co-IP; anti-FLAG immunoprecipitation from HEK293T cells co-transfected with Myc-DLC8 and FLAG-tagged CDK5RAP2 fragments; blots with anti-FLAG and anti-Myc
T1 sequence: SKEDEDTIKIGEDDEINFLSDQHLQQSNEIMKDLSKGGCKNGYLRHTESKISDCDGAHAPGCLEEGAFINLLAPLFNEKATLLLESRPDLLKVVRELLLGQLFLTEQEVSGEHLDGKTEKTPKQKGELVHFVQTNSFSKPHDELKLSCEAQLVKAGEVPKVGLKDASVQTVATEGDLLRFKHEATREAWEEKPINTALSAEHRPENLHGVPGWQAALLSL

[2] = target: T2, FLAG-CDK5RAP2 (706–1241) (human) (UniProt Q96SN8); experiment: as above
T2 sequence: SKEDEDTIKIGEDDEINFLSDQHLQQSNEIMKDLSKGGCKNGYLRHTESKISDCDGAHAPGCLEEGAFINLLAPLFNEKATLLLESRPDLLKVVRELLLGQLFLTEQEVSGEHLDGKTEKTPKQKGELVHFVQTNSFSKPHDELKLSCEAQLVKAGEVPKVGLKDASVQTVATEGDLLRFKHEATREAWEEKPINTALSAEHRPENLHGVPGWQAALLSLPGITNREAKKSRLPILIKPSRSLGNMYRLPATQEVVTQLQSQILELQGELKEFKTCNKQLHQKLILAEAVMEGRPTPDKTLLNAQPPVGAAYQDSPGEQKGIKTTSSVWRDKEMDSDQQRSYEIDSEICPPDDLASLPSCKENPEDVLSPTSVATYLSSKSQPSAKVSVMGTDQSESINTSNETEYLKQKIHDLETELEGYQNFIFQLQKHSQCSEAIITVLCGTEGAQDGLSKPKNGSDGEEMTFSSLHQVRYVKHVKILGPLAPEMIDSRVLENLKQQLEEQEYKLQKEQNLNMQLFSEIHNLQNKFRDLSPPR

[3] = target: GFP-CDK5RAP2 wild-type (human) (UniProt Q96SN8); experiment: co-IP; anti-GFP immunoprecipitation from HEK293T cells co-expressing wild-type or mutant GFP-CDK5RAP2 with Myc-DLC8; blots with anti-Myc and anti-GFP
[4] = target: GFP-CDK5RAP2 (Q874A/T875A) (human) (UniProt Q96SN8); experiment: as above
GST-DLC8 = GST-DLC8 (UniProt P63167); experiment: pull-down; 5 μg recombinant proteins mixed in 200 μl binding buffer (25 mM Tris-HCl pH 7.4, 0.5% NP40, 100 mM NaCl, 5 mM MgCl2, 1 mg/ml BSA), 4°C, 1 h; GST proteins retrieved with GSH-Sepharose; anti-His6 blot; both purified

- binding [1]: binds
- binding [2]: binds
- binding [3]: binds
- binding [4]: no binding
Molecule: Myc-DLC8 (from UniProt P63167 1-89)

- binding (GST-DLC8): binds
B1: His6-CDK5RAP2 (706–925) (domain or fragment, UniProt Q96SN8 706-925)
chain: T1 sequence
